Screen size: about 310,000 compounds; about 2,200 (0.71%) showed an effect of 50% or more. The effect is printed as a negative number. This is one part of the list.
What follows are compounds tested against human ether-à-go-go-related gene (hERG) potassium channel (human, UniProt Q12809) (assay: primary screen, population patch clamp on CHO cells stably expressing hERG).
human ether-à-go-go-related gene (hERG) potassium channel, sequence (Q12809 whole entry, looked up): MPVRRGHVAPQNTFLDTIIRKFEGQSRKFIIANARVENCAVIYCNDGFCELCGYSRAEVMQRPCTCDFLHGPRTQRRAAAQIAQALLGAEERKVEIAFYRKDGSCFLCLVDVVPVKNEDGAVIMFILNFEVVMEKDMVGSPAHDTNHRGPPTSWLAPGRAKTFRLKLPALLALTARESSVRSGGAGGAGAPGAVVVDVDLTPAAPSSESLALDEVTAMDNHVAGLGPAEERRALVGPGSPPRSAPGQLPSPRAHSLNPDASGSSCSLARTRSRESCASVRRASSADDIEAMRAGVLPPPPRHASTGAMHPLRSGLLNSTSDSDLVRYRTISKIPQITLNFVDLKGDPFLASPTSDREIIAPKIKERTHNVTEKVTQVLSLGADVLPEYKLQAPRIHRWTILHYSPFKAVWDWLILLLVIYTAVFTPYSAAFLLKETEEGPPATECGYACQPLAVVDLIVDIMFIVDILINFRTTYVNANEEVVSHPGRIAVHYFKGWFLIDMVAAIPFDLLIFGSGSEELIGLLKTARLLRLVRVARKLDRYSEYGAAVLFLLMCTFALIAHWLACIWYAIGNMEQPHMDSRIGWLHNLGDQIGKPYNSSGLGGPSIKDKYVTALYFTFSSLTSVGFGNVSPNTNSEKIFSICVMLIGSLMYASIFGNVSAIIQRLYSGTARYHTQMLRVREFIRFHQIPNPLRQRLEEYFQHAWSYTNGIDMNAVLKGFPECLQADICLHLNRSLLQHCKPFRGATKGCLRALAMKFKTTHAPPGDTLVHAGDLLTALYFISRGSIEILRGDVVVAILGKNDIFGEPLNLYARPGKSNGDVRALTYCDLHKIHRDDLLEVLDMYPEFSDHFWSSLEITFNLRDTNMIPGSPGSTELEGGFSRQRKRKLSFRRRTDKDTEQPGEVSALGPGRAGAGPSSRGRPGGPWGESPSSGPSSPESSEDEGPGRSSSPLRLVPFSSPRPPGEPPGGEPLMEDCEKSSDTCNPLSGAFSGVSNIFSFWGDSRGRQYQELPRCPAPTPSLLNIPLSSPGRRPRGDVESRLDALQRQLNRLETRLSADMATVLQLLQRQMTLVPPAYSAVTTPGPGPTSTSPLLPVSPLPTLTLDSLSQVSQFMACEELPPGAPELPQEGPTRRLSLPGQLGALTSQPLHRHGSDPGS

| SMILES | hERG current change (%, negative = inhibition) at 1uM [%] |
| --- | --- |
| Cc1cc(OCC(O)CN2CCN(c3ccccn3)CC2)cc(C)c1Cl.Cl (stereo not drawn) | 5.25 |
| O=S(=O)(CCSc1ccccn1)c1nc2ccccc2s1 | 13.4 |
| CCN(CC)C(=O)C[n+]1cccc(/C=N/O)c1 | 12.3 |
| O=C1Nc2ccccc2C(=O)C1(Cl)Cc1ccccc1 (stereo not drawn) | 7.8 |
| COc1ccc(NC(=O)C2CC(=O)OC2(C)C)cc1 (stereo not drawn) | 15.2 |
| S=C(Nc1cccnc1)N1CCCCC1 | 12.1 |
| O=C(NC1CCCCC1)C1(S(=O)(=O)c2ccc(Cl)cc2)CC1 | 5.66 |
| CCCNC(=O)COC(=O)c1cc2c(=O)n3ccccc3nc2s1 | 14.1 |
| COc1cccc(C(c2sc3ncnn3c2O)N2CC(C)OC(C)C2)c1 (stereo not drawn) | 4.29 |
| COCCn1c(SCC(=O)NC2CCCCC2C)nc2ccccc2c1=O (stereo not drawn) | 9.71 |
| COc1ccc(N2CCN(CCNC(=O)Nc3ccc(C)cc3Cl)CC2)cc1 | 5.1 |
| COc1ccc2[nH]c3c(=O)n(CCCC(=O)NC4CCC(C)CC4)c(=S)[nH]c3c2c1 (stereo not drawn) | 6.72 |
| Brc1ccc(-c2c[n+]3c(n2-c2ccccc2)SCC3)cc1.[Br-] | -3.12 |
| O=S(=O)(Nc1cnc2ccccc2c1)N1CCCCCC1 | -4.76 |
| CC(C)OCCCNc1ccc(N2C(=O)CCCC2=O)cc1[N+](=O)[O-] | -0.197 |
| CCSc1nnc(CNc2ccc(F)cc2)n1CC1CCCO1 (stereo not drawn) | 5.32 |
| COc1cc(CC(=O)OCC(=O)NCc2ccc(C)cc2)cc(OC)c1OC | 7.81 |
| Cc1nc(S(=O)(=O)Nc2ccc3c(c2)OCCO3)cn1C | 15.4 |
| Cc1nc2c(C(=O)NCc3ccc(F)cc3)c[nH]n2c(=O)c1Cl | 17.9 |
| COc1ccccc1CNC(=O)CC(C)C | 10.7 |
| Cc1noc(C)c1COC(=O)c1cc(C)n(-c2ccccc2)c1C | 7.81 |
| CCOc1cc(C)cc2oc(=O)c3c(c12)CCCC3 | 2.06 |
| C[C@]12C(=O)N(c3ccc(F)cc3)C(=O)N1[C@@H]1c3ccccc3OC[C@@H]1[C@H]2c1ccccc1 | 5.13 |

| SMILES | hERG current change (%, negative = inhibition) at 1uM [%] |
| --- | --- |
| CCOC(=O)Cn1cnc2c(nnn2-c2ccc(C)cc2)c1=O | 11.4 |
| Cc1ccc(Cn2ccc(NC(=O)c3cc(-c4cccc(Cl)c4)on3)n2)cc1 | 0.799 |
| CCC(C)SCC(=O)Nc1ccc(S(=O)(=O)N2CCOCC2)cc1OC (stereo not drawn) | 4.5 |
| Cl.OCCN(Cc1ccccc1)CC(O)COc1ccc(-c2ccccc2)cc1 (stereo not drawn) | 4.44 |
| C=CCOc1cccc(C2C(C(=O)c3ccc(C)o3)=C(O)C(=O)N2CCN(C)C)c1 (stereo not drawn) | 6.17 |
| CCOC(=O)CSc1nc(=O)n2ccccc2n1 | 13.7 |
| CCOC(=O)c1cc2c(n(-c3ccc(C)cc3)c1=O)CCCC2=O | 6.86 |
| COc1ccc(Oc2ccc(C(F)(F)F)cc2NC(=O)c2ccc(C)cc2)cc1 | 10.6 |
| Cc1ccccc1CC(=O)Nc1ccc2c(C)cc(=O)oc2c1 | 13.1 |
| Clc1ccc(C2=CC(c3ccco3)n3ncnc3N2)cc1 (stereo not drawn) | 3.08 |
| COc1ccc(CCNc2nc(C)nc3c2nnn3Cc2ccccc2)cc1 | 11 |
| OCCc1c[nH]c2ccc(OCc3ccccc3)cc12 | 11.3 |
| CCOC(=O)c1cccc(NC(=O)CCOc2ccccc2)c1 | 22.6 |
| Cc1ccc(S(=O)(=O)N(C)C)cc1NC(=O)CCc1c[nH]c2ccccc12 | 7.93 |
| CCOC(=O)N1CCN(Cc2nc(-c3ccc(Cl)cc3)no2)CC1 | 4.38 |
| Cc1ccc(/C=N/NC(=O)c2nnn(-c3nonc3N)c2CN(C)C)s1 | 9.54 |
| COc1cnc(-c2ccccn2)nc1Oc1ccc(C(C)(C)C)cc1 | 18.1 |
| O=C(O)C1C2C=CC3(CN(Cc4ccccn4)C(=O)C13)O2 (stereo not drawn) | 15.5 |
| COC(=O)C1=C(C)N(CCCCCC(=O)O)C(=O)NC1c1ccccc1 (stereo not drawn) | 2.67 |
| O=C(NC(=S)Nc1ccccc1N1CCCCC1)c1ccc(F)cc1 | 12.4 |
| Cc1c(OC(C)C(=O)NCCCN2CCCC2=O)ccc2c3c(c(=O)oc12)CCCC3 (stereo not drawn) | 9.53 |
| COC(=O)c1cccc(NC(N)=S)c1 | 5.47 |
